Source: PMC4752459
Like-named read-outs stand apart in the source and are kept apart here. No constants are given. Whether binding was seen depends on the method and setting. In cells and extracts the contact can be indirect. Some results given as binding are weak or reduced against the parent protein; the word gives no strength.

Chains of the proteins cited; added tags and fusions are not shown. Lines headed by an entry give the natural chain unless they say otherwise; changes in a name come on top.
UniProt P32458: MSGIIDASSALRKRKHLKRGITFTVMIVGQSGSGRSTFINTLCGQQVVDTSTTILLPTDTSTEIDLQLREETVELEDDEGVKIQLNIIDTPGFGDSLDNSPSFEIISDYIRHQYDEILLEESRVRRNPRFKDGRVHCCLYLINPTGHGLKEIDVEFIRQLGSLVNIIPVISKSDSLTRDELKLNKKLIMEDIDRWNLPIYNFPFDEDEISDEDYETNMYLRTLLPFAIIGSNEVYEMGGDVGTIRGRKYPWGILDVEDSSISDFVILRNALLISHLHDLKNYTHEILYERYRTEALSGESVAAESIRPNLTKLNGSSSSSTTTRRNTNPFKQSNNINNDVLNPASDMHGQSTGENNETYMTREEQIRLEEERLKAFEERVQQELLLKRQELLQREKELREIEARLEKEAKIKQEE
UniProt P32468: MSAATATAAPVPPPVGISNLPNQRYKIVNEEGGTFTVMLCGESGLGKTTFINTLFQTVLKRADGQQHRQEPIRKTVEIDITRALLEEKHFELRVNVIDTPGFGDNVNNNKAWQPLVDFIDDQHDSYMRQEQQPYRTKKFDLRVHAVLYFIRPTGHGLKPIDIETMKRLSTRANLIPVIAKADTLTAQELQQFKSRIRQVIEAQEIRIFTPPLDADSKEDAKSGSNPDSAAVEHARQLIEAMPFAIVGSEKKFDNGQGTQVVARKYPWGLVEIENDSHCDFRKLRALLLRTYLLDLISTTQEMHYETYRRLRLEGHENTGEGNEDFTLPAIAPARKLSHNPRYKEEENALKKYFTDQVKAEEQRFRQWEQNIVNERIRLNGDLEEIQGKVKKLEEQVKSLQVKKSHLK
UniProt P32457: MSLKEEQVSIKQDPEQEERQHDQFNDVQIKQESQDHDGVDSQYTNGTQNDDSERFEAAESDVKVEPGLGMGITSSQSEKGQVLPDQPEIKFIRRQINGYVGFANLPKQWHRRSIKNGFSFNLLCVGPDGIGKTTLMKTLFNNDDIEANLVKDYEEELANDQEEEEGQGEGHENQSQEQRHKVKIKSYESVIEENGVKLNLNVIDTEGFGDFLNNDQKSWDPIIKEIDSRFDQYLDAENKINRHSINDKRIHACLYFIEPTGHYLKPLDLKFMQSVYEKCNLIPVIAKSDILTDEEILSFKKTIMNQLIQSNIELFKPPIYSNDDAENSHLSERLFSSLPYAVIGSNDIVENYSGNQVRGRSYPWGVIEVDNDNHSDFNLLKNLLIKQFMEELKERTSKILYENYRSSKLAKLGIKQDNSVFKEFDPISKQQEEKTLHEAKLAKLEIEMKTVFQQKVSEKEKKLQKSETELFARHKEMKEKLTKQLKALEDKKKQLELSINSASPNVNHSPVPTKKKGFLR
UniProt P25342: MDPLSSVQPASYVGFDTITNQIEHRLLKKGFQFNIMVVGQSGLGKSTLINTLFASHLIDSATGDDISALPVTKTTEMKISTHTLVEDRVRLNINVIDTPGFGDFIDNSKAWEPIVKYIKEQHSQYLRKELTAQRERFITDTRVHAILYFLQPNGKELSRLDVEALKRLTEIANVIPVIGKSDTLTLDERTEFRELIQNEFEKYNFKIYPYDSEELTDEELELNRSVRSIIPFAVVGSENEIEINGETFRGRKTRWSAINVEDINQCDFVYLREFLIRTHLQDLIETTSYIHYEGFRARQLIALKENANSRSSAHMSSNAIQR
UniProt P25558: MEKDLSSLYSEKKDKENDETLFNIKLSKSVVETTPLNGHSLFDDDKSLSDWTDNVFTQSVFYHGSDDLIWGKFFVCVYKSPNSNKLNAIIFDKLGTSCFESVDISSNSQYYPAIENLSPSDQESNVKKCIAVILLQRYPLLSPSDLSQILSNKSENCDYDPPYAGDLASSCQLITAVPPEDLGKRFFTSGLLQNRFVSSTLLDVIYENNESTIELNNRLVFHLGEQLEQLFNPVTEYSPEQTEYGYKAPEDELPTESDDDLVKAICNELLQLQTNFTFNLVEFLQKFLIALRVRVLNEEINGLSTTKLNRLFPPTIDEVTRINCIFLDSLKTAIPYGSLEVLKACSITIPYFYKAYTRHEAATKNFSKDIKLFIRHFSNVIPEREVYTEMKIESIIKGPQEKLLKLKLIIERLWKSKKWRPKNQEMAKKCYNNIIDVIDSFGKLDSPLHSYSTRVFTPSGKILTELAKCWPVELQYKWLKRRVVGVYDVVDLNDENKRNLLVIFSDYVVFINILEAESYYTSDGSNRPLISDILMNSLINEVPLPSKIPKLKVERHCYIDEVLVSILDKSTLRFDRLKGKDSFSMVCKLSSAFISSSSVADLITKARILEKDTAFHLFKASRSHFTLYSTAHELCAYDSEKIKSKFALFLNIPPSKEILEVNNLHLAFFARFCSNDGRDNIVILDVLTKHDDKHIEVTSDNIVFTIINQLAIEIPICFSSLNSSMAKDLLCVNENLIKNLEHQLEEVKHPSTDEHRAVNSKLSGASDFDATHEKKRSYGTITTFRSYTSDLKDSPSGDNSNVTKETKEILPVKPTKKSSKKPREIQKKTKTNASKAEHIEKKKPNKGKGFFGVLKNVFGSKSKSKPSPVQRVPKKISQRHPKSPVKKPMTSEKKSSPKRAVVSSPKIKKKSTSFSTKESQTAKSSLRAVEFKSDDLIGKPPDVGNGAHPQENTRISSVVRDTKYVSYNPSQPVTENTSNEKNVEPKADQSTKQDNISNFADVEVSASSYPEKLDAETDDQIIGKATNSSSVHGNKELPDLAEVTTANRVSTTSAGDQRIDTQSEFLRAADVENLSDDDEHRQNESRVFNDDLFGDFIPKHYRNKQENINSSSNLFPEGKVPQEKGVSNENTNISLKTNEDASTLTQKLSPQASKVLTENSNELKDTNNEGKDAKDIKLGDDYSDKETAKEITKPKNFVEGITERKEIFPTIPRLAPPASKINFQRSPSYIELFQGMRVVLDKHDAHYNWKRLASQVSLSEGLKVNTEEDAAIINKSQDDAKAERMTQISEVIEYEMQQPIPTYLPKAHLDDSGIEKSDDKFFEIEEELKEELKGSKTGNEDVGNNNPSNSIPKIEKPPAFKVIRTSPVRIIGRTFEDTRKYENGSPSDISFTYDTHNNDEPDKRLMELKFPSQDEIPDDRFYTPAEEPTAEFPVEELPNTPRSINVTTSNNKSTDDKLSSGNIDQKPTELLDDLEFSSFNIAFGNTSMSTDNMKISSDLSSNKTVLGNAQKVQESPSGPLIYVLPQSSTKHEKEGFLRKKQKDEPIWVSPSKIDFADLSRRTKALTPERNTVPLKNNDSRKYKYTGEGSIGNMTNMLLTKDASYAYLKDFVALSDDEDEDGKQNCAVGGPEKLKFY

Legend:
[1] = biological target: T1, recombinant SNAP-tagged yeast septin rods (S. cerevisiae) (UniProt P32458+P32468+P32457+P25342); assay: pull-down; SNAP-tagged septin rods coupled to benzylguanine-Sepharose, blocked with BSA, incubated with yeast extract 2 h at 8°C; 50 mM Tris pH 8.0, 300 mM NaCl; 6his-SNAP beads as control; Western blot with anti-protein A or anti-GFP; only the target purified
Shs1-CCG (S. cerevisiae) [2] = biological target: T2, Shs1-CCG (S. cerevisiae) (UniProt Q07657); assay: split reporter; time resolved SPLIFF after fusion of Nub-fusion and Shs1-CCG expressing cells; imaging every 3 min, 100 μM Cu2+, 30°C
T2 sequence: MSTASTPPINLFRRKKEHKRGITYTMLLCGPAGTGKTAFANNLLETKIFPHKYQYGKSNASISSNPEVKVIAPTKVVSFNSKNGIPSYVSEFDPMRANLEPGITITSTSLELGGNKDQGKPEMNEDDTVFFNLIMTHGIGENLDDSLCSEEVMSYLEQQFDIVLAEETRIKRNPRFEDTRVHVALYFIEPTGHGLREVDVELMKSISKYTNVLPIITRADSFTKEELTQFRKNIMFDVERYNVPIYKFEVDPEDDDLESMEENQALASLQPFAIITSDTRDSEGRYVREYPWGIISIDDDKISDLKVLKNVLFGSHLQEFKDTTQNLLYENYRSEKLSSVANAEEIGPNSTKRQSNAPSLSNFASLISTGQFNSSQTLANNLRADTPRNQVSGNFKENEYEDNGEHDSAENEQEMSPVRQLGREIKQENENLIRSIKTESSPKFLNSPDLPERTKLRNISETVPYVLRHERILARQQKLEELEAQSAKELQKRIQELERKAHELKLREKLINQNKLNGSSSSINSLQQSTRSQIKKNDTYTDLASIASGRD

Shs1-CCG (S. cerevisiae) [3] = biological target: T2, Shs1-CCG (S. cerevisiae); assay: split reporter; steady-state SPLIFF (split-ubiquitin, mCherry-Cub-GFP): diploid cells with Shs1-CCG and a Nub fusion, 100 μM Cu2+, GFP/mCherry ratio at the bud neck; strong > 70%, weak > 30%, below 30% CCG to CC conversion non-interacting
[4] = biological target: T1, recombinant SNAP-tagged yeast septin rods (S. cerevisiae); assay: pull-down; SNAP-tagged septin rods coupled to benzylguanine-Sepharose, blocked with BSA, incubated with yeast extract 2 h at 8°C; 50 mM Tris pH 8.0, 300 mM NaCl; 6his-SNAP beads as control; Western blot with anti-protein A or anti-GFP; only the target purified; remark: listed apart in the source

Molecule: Bud3-TAP (from UniProt P25558 1-1636)
- binding [1]: binds weakly

B1: Nub-Bud4 (protein, UniProt P47136 1-1447)
chain: MHDAESTVDSLLKEIDNEMEQTKSNITQNGSEDTPHNWKLPLQEIGDDTMEMLVKHNTRSNATENSRGRSPSKMSTISNESLNLGLLRVNSELEESPAAVHQERIKNSVANGALGHANSPKVLNNLKNMAQDIDKLARDEEKPVKLSSSPLKFTLKSTQPLLSYPESPIHRSSIEIETNYDDEDEEEEDAYTCLTQSPQILHSPSRIPITNAVSINKLNLDFTLNPNESDKSLVSDTSVDSTGRELDTKTIPELPFCMSSTPEMTPVDEKCNLPSKLLNTSNNSHSDSRSPTASVEDLNISTNLPGADSSQNNPVTTDADALIENDVVRDLQQNMEHIDDAFDEKKVLDEGCSNEPVTFLGENDTRSIVYSNKGTNANVQEFSQEDSLAHSEPKFKDLNATSDDVWNEDKETDANISTSTKSEESYIADYKVTRQEDWDTKKLHQESEHANEQPAIIPQKDSSEETFTELNNESEFQRNFKDGEEYRIVQHEESLYGQRTKSPEENIINGSEIGVDHGEAAEVNEPLAKTSAEEHDLSSSCEDQSVSEARNKDRIEEKEVETKDENIETEKDESEYHKVEENEEPEHVPLLPPLPRWEEIQFNEPFIDENDTSNDSIDLTRSMKPSDYISIWHIQEEEIKSNSPESIANSQFSQQSSITTASTVDSKKDNGSTSFKFKPRIVSRSRIYNPKSRVSSLNYYDNEDYILSNSEWNALDPMRRNTLISKRIQDNIRTQKGHAPLIRPSIMKLNGEDSGFQNHFLEVEQPQEHENIPLSTHLSEQDITTNVGLDEQKLPTNTQDEAEISIREIESAGDITFNRGDLLSLSFDEELGQDFANFLDALDHDSTSFNHGPDDSSSFQRDSSKKSFNSLWESSYELKPPPSIRKQPIAPDVLQKLLESDTKDDADLEKIREERITEPRTGLGIGMLKTPVKDVSIALAASIKGYEASFSDTDSRPEGMNNSDAITLNMFDDFEEDKMTPSTPVRSISPIKRHVSSPFKVVKAGNKQENNEINIKAEEEIEPMTQQETDGLKQDIPPLLAQTKDNVEAKEETITQLEEPQDVEQEFPDMGTLYLSIKAISTLALYGTKSHRATYAIVFDNGENVVQTPWESLPYDGNIRINKEFELPIDFKGKAETSSASSERDSYKKCVITLKCKYEKPRHELVEIVDKVPVGKSFFGKTKYKFEKKYVQKKPKQDEWDYLFAQDGSFARCEIEINEEFLKNVAFNTSHMHYNMINKWSRIADKIHGSKRLYELPRKAPHKVASLDVEACFLERTSAFEQFPKQFSLVNKIVSKYKLQQNIYKEGYLLQDGGDLKGKIENRFFKLHGSQLSGYHEISRKAKIDINLLKVTKVLRNEDIQADNGGQRNFTDWVLFNECFQLVFDDGERITFNAECSNEEKSDWYNKLQEVVELNVFHQPWVKKYCEKLAEEEKTRTTGHNLKQDFN
- binding (Shs1-CCG (S. cerevisiae) [2]): binds
- binding (Shs1-CCG (S. cerevisiae) [3]): binds

B2: Bud4-TAP (protein, UniProt P47136 1-1447)
chain: MHDAESTVDSLLKEIDNEMEQTKSNITQNGSEDTPHNWKLPLQEIGDDTMEMLVKHNTRSNATENSRGRSPSKMSTISNESLNLGLLRVNSELEESPAAVHQERIKNSVANGALGHANSPKVLNNLKNMAQDIDKLARDEEKPVKLSSSPLKFTLKSTQPLLSYPESPIHRSSIEIETNYDDEDEEEEDAYTCLTQSPQILHSPSRIPITNAVSINKLNLDFTLNPNESDKSLVSDTSVDSTGRELDTKTIPELPFCMSSTPEMTPVDEKCNLPSKLLNTSNNSHSDSRSPTASVEDLNISTNLPGADSSQNNPVTTDADALIENDVVRDLQQNMEHIDDAFDEKKVLDEGCSNEPVTFLGENDTRSIVYSNKGTNANVQEFSQEDSLAHSEPKFKDLNATSDDVWNEDKETDANISTSTKSEESYIADYKVTRQEDWDTKKLHQESEHANEQPAIIPQKDSSEETFTELNNESEFQRNFKDGEEYRIVQHEESLYGQRTKSPEENIINGSEIGVDHGEAAEVNEPLAKTSAEEHDLSSSCEDQSVSEARNKDRIEEKEVETKDENIETEKDESEYHKVEENEEPEHVPLLPPLPRWEEIQFNEPFIDENDTSNDSIDLTRSMKPSDYISIWHIQEEEIKSNSPESIANSQFSQQSSITTASTVDSKKDNGSTSFKFKPRIVSRSRIYNPKSRVSSLNYYDNEDYILSNSEWNALDPMRRNTLISKRIQDNIRTQKGHAPLIRPSIMKLNGEDSGFQNHFLEVEQPQEHENIPLSTHLSEQDITTNVGLDEQKLPTNTQDEAEISIREIESAGDITFNRGDLLSLSFDEELGQDFANFLDALDHDSTSFNHGPDDSSSFQRDSSKKSFNSLWESSYELKPPPSIRKQPIAPDVLQKLLESDTKDDADLEKIREERITEPRTGLGIGMLKTPVKDVSIALAASIKGYEASFSDTDSRPEGMNNSDAITLNMFDDFEEDKMTPSTPVRSISPIKRHVSSPFKVVKAGNKQENNEINIKAEEEIEPMTQQETDGLKQDIPPLLAQTKDNVEAKEETITQLEEPQDVEQEFPDMGTLYLSIKAISTLALYGTKSHRATYAIVFDNGENVVQTPWESLPYDGNIRINKEFELPIDFKGKAETSSASSERDSYKKCVITLKCKYEKPRHELVEIVDKVPVGKSFFGKTKYKFEKKYVQKKPKQDEWDYLFAQDGSFARCEIEINEEFLKNVAFNTSHMHYNMINKWSRIADKIHGSKRLYELPRKAPHKVASLDVEACFLERTSAFEQFPKQFSLVNKIVSKYKLQQNIYKEGYLLQDGGDLKGKIENRFFKLHGSQLSGYHEISRKAKIDINLLKVTKVLRNEDIQADNGGQRNFTDWVLFNECFQLVFDDGERITFNAECSNEEKSDWYNKLQEVVELNVFHQPWVKKYCEKLAEEEKTRTTGHNLKQDFN
- binding [4]: binds

B3: Rlp7-TAP (protein, UniProt P40693 1-322)
chain: MSSTQDSKAQTLNSNPEILLRKRRNADRTRIERQELAKKKREEQIKKKRSNKNKFVRAESIVAKTLATSREKERIKRVSILEDKKAKNETQHIASGKDFILKITEKANGAEENSVDLEETEEEEDDGLIREKTTYDGKPALLFIVRVRGPLAVNIPNKAFKILSLLRLVETNTGVFVKLTKNVYPLLKVIAPYVVIGKPSLSSIRSLIQKRGRIIYKGENEAEPHEIVLNDNNIVEEQLGDHGIICVEDIIHEIATMGESFSVCNFFLQPFKLNREVSGFGSLNRLRKIKQREAESRTRQFSNAATAPVIEVDIDSLLAKLN
- binding [4]: no binding
